Test results reported in the supplement of paper PMC8285479.
Counter-ions that a name gives are not always drawn. ± gives the standard deviation of the averaged measurements. Over roughly 1,900 compounds, “normalised cell viability (NPI; 0 = phenylarsine oxide control, 1 = DMSO control)” has its median near 1; the lowest 2% begin near 0.039. This is one part of the list.

System: NCI-H1944
Test: normalised cell viability (NPI; 0 = phenylarsine oxide control, 1 = DMSO control) (fraction of DMSO control); NCI-H1944 is a non-small cell lung cancer line; higher = more viable cells (less compound toxicity)
Settings: 6 days
[1] = glucocorticoid arm: hydrocortisone 2.75 uM co-treatment, compound 1 µM
[2] = glucocorticoid arm: hydrocortisone 2.75 uM co-treatment, compound 5 µM
[3] = glucocorticoid arm: hydrocortisone 2.75 uM pre-treated 2 days and continued, compound 1 µM
[4] = glucocorticoid arm: hydrocortisone 2.75 uM pre-treated 2 days and continued, compound 5 µM
[5] = glucocorticoid arm: vehicle, compound 1 µM
[6] = glucocorticoid arm: vehicle, compound 5 µM
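Also: CTB read-out in 384-well plates, mean of triplicate wells, normalised per plate against 1 µM phenylarsine oxide and 0.1% DMSO, compounds added 24 h after seeding.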

SMILES	normalised cell viability [1]	normalised cell viability [2]	normalised cell viability [3]	normalised cell viability [4]	normalised cell viability [5]	normalised cell viability [6]
NC1CCN(c2cccc(Cl)n2)CC1	0.972 ± 0.0035	0.971 ± 0.025	0.868 ± 0.22	0.969 ± 0.022	0.9767 ± 0.0035	0.977 ± 0.0027
NC(=NCCC[C@H](N)C(=O)O)NO [NG-Hydroxy-L-arginine acetate]	1.01	0.991 ± 0.014	0.9913 ± 0.0096	1 ± 0.027	0.9893 ± 0.0023	0.987 ± 0.001
CC(NC(=O)c1ccccc1/N=C/c1c(O)ccc2ccccc12)c1ccccc1 (centres undefined) [Sirtinol]	–	–	–	–	–	1.01
Cc1ccc(S(=O)(=O)N[C@@H](Cc2ccccc2)C(=O)CCl)cc1 [N-p-Tosyl-L-phenylalanine chloromethyl ketone]	0.9977 ± 0.0032	1.01 ± 0.028	0.868 ± 0.25	1.02 ± 0.015	1.007 ± 0.0058	0.691 ± 0.057
O=C(O)COCCN1CCN(C(c2ccccc2)c2ccc(Cl)cc2)CC1 (centres undefined) [Cetirizine DiHCl]	1 ± 0.013	1.02 ± 0.01	1.007 ± 0.0058	1.03 ± 0.021	1.004 ± 0.0098	0.996 ± 0.0061
N[C@@H]1CONC1=O [D-Cycloserine]	1.013 ± 0.0058	1.02 ± 0.017	1.01	0.996 ± 0.035	0.989 ± 0.0095	0.9983 ± 0.0029
Cn1cc(-c2cnn3c(N)c(Br)c([C@@H]4CCCNC4)nc23)cn1	0.972 ± 0.0099	0.931 ± 0.041	0.948 ± 0.018	0.936 ± 0.0078	1.005 ± 0.0087	0.9357 ± 0.0057
C=CC(=O)Nc1cccc(Nc2nc(Nc3ccc(Oc4ccnc(C(=O)NC)c4)cc3)ncc2F)c1	0.942 ± 0.017	0.7137 ± 0.0064	0.922 ± 0.0056	0.872 ± 0.075	0.98967 ± 0.00058	0.466 ± 0.029
CCCSc1nc(N[C@@H]2C[C@H]2c2ccc(F)c(F)c2)c2nnn([C@@H]3C[C@H](OCCO)[C@@H](O)[C@H]3O)c2n1 [Ticagrelor]	1.01 ± 0.017	1.01 ± 0.034	1.027 ± 0.0058	1.01 ± 0.015	1.002 ± 0.007	0.988 ± 0.0082
CC(=O)O[C@]1(C(C)=O)CC[C@H]2[C@@H]3C=C(Cl)C4=CC(=O)[C@@H]5C[C@@H]5[C@]4(C)[C@H]3CC[C@@]21C [Cyproterone acetate]	1.01 ± 0.011	1.03 ± 0.015	1.01 ± 0.018	1.015 ± 0.0071	0.994 ± 0.006	1.01
O=C(O)C1CCCN(CCC=C(c2ccccc2)c2ccccc2)C1 (centres undefined)	0.9933 ± 0.0021	1 ± 0.025	1.01 ± 0.026	0.999 ± 0.0017	1.002 ± 0.007	0.9933 ± 0.0099
COc1ccc(-c2ccc3ncc4c(c3c2)n(-c2ccc(N3CCNCC3)c(C(F)(F)F)c2)c(=O)n4C)cn1	0.00163 ± 0.00092	0.000434 ± 0.00018	0.25 ± 0.021	0.0016 ± 0.00014	0.000974 ± 0.00058	0.000275 ± 0.00038
COc1cc2nc(N(C)CCCNC(=O)C3CCCO3)nc(N)c2cc1OC (centres undefined) [Alfuzosin HCl]	1.02 ± 0.025	1.03 ± 0.021	1.04 ± 0.01	1.043 ± 0.0058	1	0.9847 ± 0.004
Clc1ccc(Cn2c(CN3CCCC3)nc3ccccc32)cc1 [Clemizole hydrochloride]	1.003 ± 0.0061	1.06 ± 0.01	1.01 ± 0.012	1.05 ± 0.014	1.003 ± 0.0058	1.023 ± 0.0058
